Source: patent US11351268B2, “FGF21 C-terminal peptide optimization” (INDIANA UNIVERSITY RESEARCH AND TECHNOLOGY CORPORATION, priority 2016, dated 2022)
Entries after “also recorded” stand apart in the source; their conditions may differ. Not every detail of the peptide structures is certain; ends, links or a residue may be inferred. Non-standard residues stand in square brackets, D forms with d. Residues, ends and D or L forms follow the SMILES beside them. No end group written: not given here.

system: FGF21 activity in Hep3B cells; experiment: antagonism of FGF21 activity in Hep3B cells; type: cell-based; conditions: FIG. 7C, relative to native sequences; listed as FGF19 169-194 K194A

“PLETDSMDPFGLVTGLEAVRSPSFEA-NH2 (C-terminus assumed) [FGF19 A25]” was tested, and the “antagonism of FGF21 activity in Hep3B cells (in words)” value was “superior bioactivity; also recorded: superior antagonist”.

biological target: T1, Klotho β (KLB) (Homo sapiens, UniProt Q86Z14); experiment: not given; type: cell-based; conditions: Table 2(A), FGF19 169-194 alanine mutants, ≥95% maximal activity
T1 construct: expressed in transfected cells; host or cells: HEK 293T (ATCC), pooled Zeocin-selected cells stably expressing hKLB from pcDNA3.1(+)
T1 sequence (Q86Z14 1-1044): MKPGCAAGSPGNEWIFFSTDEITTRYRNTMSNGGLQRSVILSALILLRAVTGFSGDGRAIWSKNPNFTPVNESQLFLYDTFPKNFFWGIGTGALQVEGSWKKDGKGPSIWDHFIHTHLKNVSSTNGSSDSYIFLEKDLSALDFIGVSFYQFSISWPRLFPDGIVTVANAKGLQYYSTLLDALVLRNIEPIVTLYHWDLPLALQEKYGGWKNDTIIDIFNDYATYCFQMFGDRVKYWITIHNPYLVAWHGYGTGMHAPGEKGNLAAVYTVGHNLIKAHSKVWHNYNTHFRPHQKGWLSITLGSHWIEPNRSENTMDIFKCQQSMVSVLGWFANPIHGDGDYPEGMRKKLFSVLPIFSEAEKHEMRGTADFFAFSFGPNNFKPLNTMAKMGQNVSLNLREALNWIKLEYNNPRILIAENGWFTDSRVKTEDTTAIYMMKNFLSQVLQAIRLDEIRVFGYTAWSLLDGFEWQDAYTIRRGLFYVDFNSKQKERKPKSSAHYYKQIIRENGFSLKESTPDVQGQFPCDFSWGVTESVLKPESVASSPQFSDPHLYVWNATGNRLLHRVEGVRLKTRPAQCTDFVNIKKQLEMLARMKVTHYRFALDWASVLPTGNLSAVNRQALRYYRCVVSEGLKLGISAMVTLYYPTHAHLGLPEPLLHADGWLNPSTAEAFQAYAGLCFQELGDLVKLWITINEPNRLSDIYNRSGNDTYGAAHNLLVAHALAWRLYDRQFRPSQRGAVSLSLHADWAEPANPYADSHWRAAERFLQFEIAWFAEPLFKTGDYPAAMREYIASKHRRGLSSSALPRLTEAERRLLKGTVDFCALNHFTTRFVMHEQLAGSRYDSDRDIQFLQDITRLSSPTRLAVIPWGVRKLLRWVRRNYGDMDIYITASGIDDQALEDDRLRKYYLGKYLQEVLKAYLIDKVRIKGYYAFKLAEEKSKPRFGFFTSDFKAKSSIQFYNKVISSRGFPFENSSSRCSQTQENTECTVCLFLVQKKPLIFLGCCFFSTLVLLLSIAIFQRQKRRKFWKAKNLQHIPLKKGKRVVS
Protocol: Cells were cultured in 10% Fetal Bovine Serum containing DMEM High glucose GLUTAMAX® at 37 C, 95% humidity, 5% CO2. For generating the cell line with stable expression, human KLB gene was synthesized by Genscript and subcloned into pcDNA3.1(+) with ZEOCIN® resistance vector (INVITROGEN®) by NheI and NotI restriction enzyme sites. HEK 293T cells were obtained from ATCC and were transiently transfected at 80% confluency using Lipofectamine 3000 (Invitrogen). Selection for KLB-expressing cells was initiated 48 hours post-transfection in the growth media containing 100 μg/ml of ZEOCIN® (Gibco) and continued for 4 weeks with fresh media added every third day. Human KLB expression in pooled cells was confirmed by Western blot and a functional FGF21 MAPK phosphorylation assay.
293 HEK cells expressing hKLB were plated to 90% confluency in 96 well plates coated with poly-D-Lysine. Cells were serum starved for three hours in 0.1% BSA containing media prior to stimulation with protein and/or an antagonist peptide for ten minutes at 37° C. The cell lysate was used for the detection of phospho-Erk1/2 levels by AlphaSureFire kit using the prescribed protocol. The degree of biochemical activation was recorded and analyzed using Origin software by logistic curve fitting. Tests at each concentration were done in triplicates, and the standard deviation is as shown in the graphs. The calculation of maximal activities was done keeping the FGF21 157-181 or FGF19 169-194 peptide activity as standard. The difference between the Erk1/2 phosphorylation signal for the highest (10 μM) and the lowest (0 μM) tested dose for native peptide was considered as 100% and accordingly all the other values were assigned.

Going from “ALETDSMDPFGLVTGLEAVRSPSFEK-NH2 (C-terminus assumed) [FGF19 P169]” to “PLATDSMDPFGLVTGLEAVRSPSFEK-NH2 (C-terminus assumed) [FGF19 E171]”, the IC50 falls from 210 nM to 120 nM (1.8-fold).

First: PLETASMDPFGLVTGLEAVRSPSFEK-NH2 (C-terminus assumed) [FGF19 D173]
Second: PLETDSADPFGLVTGLEAVRSPSFEK-NH2 (C-terminus assumed) [FGF19 M175]
The IC50 of the first is 3.1-fold higher: 460 nM for the first, 150 nM for the second. The second is the more potent here.

“PLETDSMDPFGLVAGLEAVRSPSFEK-NH2 (C-terminus assumed) [FGF19 T182]” and “PLETDSMDPFGLVTALEAVRSPSFEK-NH2 (C-terminus assumed) [FGF19 G183]” are within 1.5-fold of each other in IC50: 520 nM for the first, 400 nM for the second.

First: PLETDSMDPFGLVTGAEAVRSPSFEK-NH2 (C-terminus assumed) [FGF19 L184]
Second: PLETDSMDPFGLVTGLAAVRSPSFEK-NH2 (C-terminus assumed) [FGF19 E185]
The IC50 of the first is 2.1-fold lower: 200 nM for the first, 430 nM for the second.

First: PLETDSMDPFGLVTGLEAARSPSFEK-NH2 (C-terminus assumed) [FGF19 V187]
Second: PLETDSMDPFGLVTGLEAVASPSFEK-NH2 (C-terminus assumed) [FGF19 R188]
The IC50 of the first is 1.8-fold higher: 690 nM for the first, 380 nM for the second. The second is the more potent here.

Work on “PLETDSMDPFGLVTGLEAVRSPSFAK-NH2 (C-terminus assumed) [FGF19 E193]” yielded an IC50 of 850 nM.

same assay, conditions: Table 2(B), FGF19 169-194 alanine mutants, <95% maximal activity

Going from “PAETDSMDPFGLVTGLEAVRSPSFEK-NH2 (C-terminus assumed) [FGF19 L170]” to “PLEADSMDPFGLVTGLEAVRSPSFEK-NH2 (C-terminus assumed) [FGF19 T172]”, the IC50 falls from 2170 nM to 1400 nM (1.6-fold). The second is the more potent here.

Compared with “PLETDAMDPFGLVTGLEAVRSPSFEK-NH2 (C-terminus assumed) [FGF19 S174]”, “PLETDSMDPFALVTGLEAVRSPSFEK-NH2 (C-terminus assumed) [FGF19 G179]” is 1.8-fold lower in IC50: 3390 nM for the first, 1930 nM for the second.

First: PLETDSMDPFGLATGLEAVRSPSFEK-NH2 (C-terminus assumed) [FGF19 V181]
Second: PLETDSMDPFGLVTGLEAVRAPSFEK-NH2 [FGF19 S189]
The IC50 of the first is lower: 1810 nM for the first, > 2000 nM for the second.

“PLETDSMDPFGLVTGLEAVRSASFEK-NH2 [FGF19 P190]” and “PLETDSMDPFGLVTGLEAVRSPAFEK-NH2 [FGF19 S191]” cannot be ordered by IC50: > 2000 nM for the first, > 2000 nM for the second.

“PLETDSMDPFGLVTGLEAVRSPSAEK-NH2 (C-terminus assumed) [FGF19 F192]” showed an IC50 of 2970 nM.

same assay, conditions: Table 3, D-amino acid scan; C25 = 100

Compared with CSCC[C@H](NC(=O)[C@H](CO)NC(=O)[C@H](CC(C)C)NC(=O)[C@@H]1CCCN1C(=O)[C@H](CC(=O)O)NC(=O)[C@H](CO)NC(=O)[C@H](CO)NC(=O)CNC(=O)[C@@H](NC(=O)[C@H](CC(=O)O)NC(=O)[C@@H]1CCCN1C(=O)[C@@H]1CCCN1)C(C)C)C(=O)N[C@H](C(=O)NCC(=O)N1CCC[C@H]1C(=O)N[C@@H](CO)C(=O)N[C@@H](CCC(N)=O)C(=O)NCC(=O)N[C@@H](CCCNC(=N)N)C(=O)N[C@@H](CO)C(=O)N1CCC[C@H]1C(=O)N[C@@H](CO)C(=O)N[C@@H](Cc1ccc(O)cc1)C(=O)N[C@H](C)C(=O)N[C@@H](CO)C(N)=O)C(C)C [d24, PPDVG SSDPL SMVGP SQGRS PSYaS] (H-PPDVGSSDPLSMVGPSQGRSPSY[dA]S-NH2; N-terminus and C-terminus assumed), CSCC[C@H](NC(=O)[C@H](CO)NC(=O)[C@H](CC(C)C)NC(=O)[C@@H]1CCCN1C(=O)[C@H](CC(=O)O)NC(=O)[C@H](CO)NC(=O)[C@H](CO)NC(=O)CNC(=O)[C@@H](NC(=O)[C@H](CC(=O)O)NC(=O)[C@@H]1CCCN1C(=O)[C@@H]1CCCN1)C(C)C)C(=O)N[C@H](C(=O)NCC(=O)N1CCC[C@H]1C(=O)N[C@@H](CO)C(=O)N[C@@H](CCC(N)=O)C(=O)NCC(=O)N[C@@H](CCCNC(=N)N)C(=O)N[C@@H](CO)C(=O)N1CCC[C@H]1C(=O)N[C@@H](CO)C(=O)N[C@@H](Cc1ccc(O)cc1)C(=O)N[C@@H](C)C(=O)N[C@H](CO)C(N)=O)C(C)C [d25, PPDVG SSDPL SMVGP SQGRS PSYAs] (H-PPDVGSSDPLSMVGPSQGRSPSYA[dS]-NH2; N-terminus and C-terminus assumed) is higher in “% Activity vs C25” value: 32.29 ± 13.52% for the first, 118.62 ± 38.73% for the second.

With “PPDVGSSDPLSMVGPSQGRSPSYAS-NH2 [Peptide C25, PPDVGSSDPLSMVGPSQGRSPSYAS, reference compound]” the “% Activity vs C25” value was 100.000%.
